In the supplement of paper PMC3334620:
Over roughly 33,000 sequences, “E-score (-0.5 to 0.5)” has its median near -0.054; the highest 2% begin near 0.35. The list shows a part of the results.

Biological target: T1, Stb5 (UniProt P38699)
T1 sequence: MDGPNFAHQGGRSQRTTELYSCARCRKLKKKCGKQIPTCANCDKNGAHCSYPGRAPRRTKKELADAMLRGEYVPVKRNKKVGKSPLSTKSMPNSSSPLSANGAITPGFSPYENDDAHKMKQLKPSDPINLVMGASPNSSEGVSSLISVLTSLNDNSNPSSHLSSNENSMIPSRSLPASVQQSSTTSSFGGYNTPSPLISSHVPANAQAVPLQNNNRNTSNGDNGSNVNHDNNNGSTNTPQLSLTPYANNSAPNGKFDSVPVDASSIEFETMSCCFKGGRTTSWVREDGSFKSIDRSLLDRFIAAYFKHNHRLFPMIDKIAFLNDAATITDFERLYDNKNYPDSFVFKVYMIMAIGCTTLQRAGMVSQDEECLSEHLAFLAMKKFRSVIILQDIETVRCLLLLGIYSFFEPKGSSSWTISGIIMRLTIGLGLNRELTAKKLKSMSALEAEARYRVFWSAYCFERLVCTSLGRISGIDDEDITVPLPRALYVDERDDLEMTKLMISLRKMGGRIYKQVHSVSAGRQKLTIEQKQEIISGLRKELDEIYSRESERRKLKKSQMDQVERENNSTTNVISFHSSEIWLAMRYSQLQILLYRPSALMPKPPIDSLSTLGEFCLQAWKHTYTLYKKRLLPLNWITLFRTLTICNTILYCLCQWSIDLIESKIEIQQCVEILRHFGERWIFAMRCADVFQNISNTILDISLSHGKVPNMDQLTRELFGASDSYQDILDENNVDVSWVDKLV
Experiment: PBM E-score (8-mer binding enrichment) (E-score (-0.5 to 0.5)); higher = stronger / more preferred TF binding; most listed sequences are background and not binding sites
Settings: protein concentration: 200 nM; construct: GST-full length
Outline: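 Bound GST-tagged yeast transcription factors, applied at about 100-200 nM to double-stranded universal all-10-mer Agilent arrays, were detected with fluorescent anti-GST. Scans were normalised with masliner. A modified Wilcoxon-Mann-Whitney statistic, the E-score, was assigned to each ungapped eight-base word pooled with its reverse complement by the Universal PBM Analysis Suite.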

| Sequence | PBM E-score |
| --- | --- |
| ACACGTGT | -0.291 |
| AGGATGAC | -0.189 |
| ATGGTCGA | -0.198 |
| GAACGTCA | -0.246 |
| GGAAGAGA | 0.00808 |
| CCGCCAGC | 0.356 |
| CGGTATTA | 0.472 |
| ATAACAAT | 0.0147 |
| TAAGGGGA | 0.087 |
| ACCCCCAC | 0.00633 |
| ATCATCGG | 0.299 |
| AGAGTCAT | -0.313 |
| AGCGTCAA | 0.0319 |
| GCGCGTTA | 0.0855 |
| ACTTCGAA | -0.242 |
| ATTGACGC | 0.0279 |
| GAACCGAC | 0.225 |
| CGGATAAC | 0.132 |
| CAGTATCC | -0.0856 |
| CTCCCTAC | -0.0607 |
| GGGCGCAC | 0.0767 |
| AATATTAC | 0.101 |
| ACTCTGGC | -0.146 |
| ATAAAATG | -0.0434 |
| CGTGGTCA | -0.252 |

| Sequence | PBM E-score |
| --- | --- |
| AGCGGGAT | 0.25 |
| ATATCGCA | -0.0216 |
| AAGGACCA | -0.0213 |
| AGCAAGAA | -0.0877 |
| AGTTCCCG | 0.196 |
| CGCTTCCG | 0.208 |
| AACTAGGC | -0.093 |
| CAGTCCTA | -0.313 |
| ACCGGACT | 0.376 |
| CAGCGATG | -0.0384 |
| GAGTTGAC | -0.0497 |
| GAGCCAAC | -0.226 |
| CATCAGAA | -0.195 |
| AGGGCTGC | -0.226 |
| GAAACCCC | 0.353 |
| GGGTTTGA | 0.0849 |
| GTGTGTCA | -0.0349 |
| ATTTCGGA | 0.265 |
| GGACACGA | 0.0374 |
| CCCCGCTC | 0.371 |
| ACGGTCCA | 0.0299 |
| GCTATATA | 0.132 |
| CGATCAAC | -0.141 |
| ACATCACG | -0.114 |
| ACCGCCCC | 0.367 |

| Sequence | PBM E-score |
| --- | --- |
| TACACTAA | -0.176 |
| ATGAGATG | -0.17 |
| ATGGCCTG | -0.227 |
| AAAGAGCC | 0.111 |
| CTTTGCTC | 0.0678 |
| AGCTTAAG | -0.265 |
| TAGCTGAA | -0.141 |
| GTCTGCAC | -0.0476 |
| GAACGAAA | -0.156 |
| CCGTAGCA | 0.189 |
| CATTGACG | -0.0772 |
| AGGTTAAC | 0.0587 |
| GGTACTTA | 0.233 |
| ACCTTTGC | -0.0619 |
| ATAGAGTC | -0.013 |
| CCAGTGGG | -0.145 |
| CCGTCCGA | 0.275 |
| ACACGTCC | -0.114 |
| CCGGGAAG | 0.0638 |
| AAGATCGC | -0.0115 |
| CCAATTTC | -0.0638 |
| CGATACAG | -0.0583 |
| AGAGTATG | -0.102 |
| AAATCGCT | -0.107 |
| CAGTAGCC | -0.051 |

| Sequence | PBM E-score |
| --- | --- |
| AATAGAGG | -0.111 |
| AAGTTTGG | -0.00921 |
| ATCTTACG | 0.0966 |
| CCGCCGAG | 0.28 |
| AACTGCGG | 0.307 |
| CGACAACG | 0.175 |
| ATTAACGA | -0.0931 |
| AACATGTC | 0.0872 |
| GACAGACA | 0.0708 |
| ATTATCTG | -0.0511 |
| CTGGAGGC | -0.272 |
| ATTGCGGC | 0.204 |
| CTTTGCCA | -0.0558 |
| AGTTTATC | 0.0422 |
| CCATCGTA | -0.0851 |
| ATTCGGGA | 0.0209 |
| AATTCTTA | -0.112 |
| CCCGGGAA | 0.217 |
| ACCGCAAA | 0.262 |
| GGATTACA | -0.0636 |
| CGAGAATA | -0.0969 |
| ACACACAC | -0.133 |
| CGAAGTAC | 0.0461 |
| AGTGATAT | -0.0933 |
| CATCTTGG | -0.229 |

| Sequence | PBM E-score |
| --- | --- |
| CATCGGCA | 0.328 |
| TGAGAACA | -0.0285 |
| GAAGGGGC | -0.11 |
| ATCCGCTC | 0.243 |
| GTCGCGTA | 0.0581 |
| AAACGCGA | -0.0694 |
| ATCGCCAT | 0.161 |
| AAGCGAGT | -0.0722 |
| ACTTATAG | 0.198 |
| ATAAAGAC | 0.0554 |
| ATTAAAAG | 0.0331 |
| GTGAAGAA | -0.141 |
| ATATCTCC | 0.397 |
| ATGGACAG | -0.131 |
| GTCGAGAA | -0.174 |
| AGGTGCAA | -0.161 |
| CCCCAAAG | -0.212 |
| GGAAATCA | -0.0323 |
| CAACGAAG | -0.162 |
| ATATGTTG | -0.128 |
| AGCGTACT | -0.0432 |
| AAGGCCAG | -0.161 |
| CTACCAAG | -0.191 |
| GCAGTACA | 0.0171 |
| TACTTGAA | -0.125 |

| Sequence | PBM E-score |
| --- | --- |
| AGACCAAT | -0.177 |
| AGGGCGGG | 0.328 |
| CGGGATCA | 0.321 |
| AAGTACGT | -0.0365 |
| ATCGCTTG | -0.173 |
| AGCCCAAT | -0.246 |
| GTCGGCAC | 0.374 |
| ACGAATGC | -0.299 |
| ACTTTTCA | -0.276 |
| AGGCAATC | -0.176 |
| CCACTGGG | -0.315 |
| CCTTTGTA | -0.0974 |
| AGCACACG | -0.157 |
| AAAATAAC | 0.0722 |
| CACGTGAA | -0.198 |
| CGGACATC | 0.256 |
| CGCCGAAA | 0.311 |
| TATGGAAA | -0.0819 |
| CAGGGTAA | -0.133 |
| CAGGATCA | -0.159 |
| CCTACTAG | -0.196 |
| CGCGGACC | 0.319 |
| GGTCAAGA | -0.165 |
| ATATGGCG | 0.103 |
| AGTGGATC | -0.054 |

| Sequence | PBM E-score |
| --- | --- |
| CTCGATGC | -0.2 |
| GGCTACTA | 0.1 |
| ACGATCAT | -0.317 |
| CAGACAGA | -0.206 |
| CATCCCAA | -0.296 |
| GGTACGAC | 0.063 |
| CACTCCGC | 0.307 |
| ACTTTCAG | -0.132 |
| GCACTCCA | -0.0741 |
| GCCGAGAC | 0.00317 |
| CATATCTC | 0.0185 |
| GCATTACA | -0.0122 |
| CAAAAACC | 0.251 |
| CTCGCACA | -0.108 |
| GCTGGGGA | -0.0409 |
| CTGACAGC | -0.122 |
| CCAAAGTC | -0.0853 |
| CGTTTTGC | -6e-05 |
| ATGTGTCC | 0.14 |
| GGCTGGAA | -0.0915 |
| AACTAAGT | -0.0163 |
| GGCCAAGA | -0.185 |
| CGTGAGAG | -0.241 |
| CCCTGCAG | -0.0201 |
| CCTTCACG | -0.111 |

| Sequence | PBM E-score |
| --- | --- |
| AACATGAT | -0.148 |
| CACGAACC | 0.0906 |
| AAACACAC | 0.0727 |
| AAGCGATC | -0.0121 |
| TAATCCTA | 0.0784 |
| ACCTACAT | -0.17 |
| CGCAAGAG | -0.0947 |
| GGATAGAC | -0.0915 |
| ACGGTACT | 0.389 |
| GGGGCTAC | 0.213 |
| ACATCACT | -0.259 |
| CATCAACG | -0.0698 |
| GATAGGAC | -0.0426 |
| GGGTTAGA | 0.107 |
| CAGCAATC | -0.068 |
| TGGTACCA | -0.0919 |
| ACGACATG | -0.0894 |
| AAAACCCG | 0.379 |
| CTATTCAC | 0.0929 |
| CAAGAAGA | -0.224 |
| AAGAGTGT | -0.252 |
| AACCTCGG | 0.157 |
| GGTTAGAC | 0.0467 |
| CTTAGAAA | -0.105 |
| CTCGCCTC | -0.245 |

| Sequence | PBM E-score |
| --- | --- |
| CGCGCGGA | 0.22 |
| CTGCTCGC | -0.122 |
| CTGGATAC | -0.114 |
| ATTCTGCC | 0.0981 |
| TAGCAGGA | -0.0294 |
| AAGTTCTG | -0.231 |
| CAGAGACC | -0.0121 |
| AATAGAAG | -0.0985 |
| GGGCGAAA | -0.0437 |
| GTTTATCA | 0.102 |
| ACGAGTTG | -0.239 |
| ACGCGTTA | -0.114 |
| GGAATGCA | -0.0982 |
| AGTTAGAT | -0.209 |
| AGAGACTG | -0.344 |
| ACCGAGCA | 0.155 |
| ACTCGCCA | -0.226 |
| ATCACCGC | 0.447 |
| CTCATAGC | -0.176 |
